The source of these data is PMC4336329 (PLoS ONE, 2015).

The structures appear in SMILES notation. The whole screen tested about 310,000 compounds, of which about 14,000 (4.5%) showed an effect of 50% or more. Effects have a minus sign here. This is one part of the list.
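Also: peak tail current of the secondary pulse compared with the same well before compound.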

For the assay, the target named is human ether-à-go-go-related gene (hERG) potassium channel (human, UniProt Q12809). In words: primary screen, population patch clamp on CHO cells stably expressing hERG.
human ether-à-go-go-related gene (hERG) potassium channel, sequence (Q12809 whole entry, looked up): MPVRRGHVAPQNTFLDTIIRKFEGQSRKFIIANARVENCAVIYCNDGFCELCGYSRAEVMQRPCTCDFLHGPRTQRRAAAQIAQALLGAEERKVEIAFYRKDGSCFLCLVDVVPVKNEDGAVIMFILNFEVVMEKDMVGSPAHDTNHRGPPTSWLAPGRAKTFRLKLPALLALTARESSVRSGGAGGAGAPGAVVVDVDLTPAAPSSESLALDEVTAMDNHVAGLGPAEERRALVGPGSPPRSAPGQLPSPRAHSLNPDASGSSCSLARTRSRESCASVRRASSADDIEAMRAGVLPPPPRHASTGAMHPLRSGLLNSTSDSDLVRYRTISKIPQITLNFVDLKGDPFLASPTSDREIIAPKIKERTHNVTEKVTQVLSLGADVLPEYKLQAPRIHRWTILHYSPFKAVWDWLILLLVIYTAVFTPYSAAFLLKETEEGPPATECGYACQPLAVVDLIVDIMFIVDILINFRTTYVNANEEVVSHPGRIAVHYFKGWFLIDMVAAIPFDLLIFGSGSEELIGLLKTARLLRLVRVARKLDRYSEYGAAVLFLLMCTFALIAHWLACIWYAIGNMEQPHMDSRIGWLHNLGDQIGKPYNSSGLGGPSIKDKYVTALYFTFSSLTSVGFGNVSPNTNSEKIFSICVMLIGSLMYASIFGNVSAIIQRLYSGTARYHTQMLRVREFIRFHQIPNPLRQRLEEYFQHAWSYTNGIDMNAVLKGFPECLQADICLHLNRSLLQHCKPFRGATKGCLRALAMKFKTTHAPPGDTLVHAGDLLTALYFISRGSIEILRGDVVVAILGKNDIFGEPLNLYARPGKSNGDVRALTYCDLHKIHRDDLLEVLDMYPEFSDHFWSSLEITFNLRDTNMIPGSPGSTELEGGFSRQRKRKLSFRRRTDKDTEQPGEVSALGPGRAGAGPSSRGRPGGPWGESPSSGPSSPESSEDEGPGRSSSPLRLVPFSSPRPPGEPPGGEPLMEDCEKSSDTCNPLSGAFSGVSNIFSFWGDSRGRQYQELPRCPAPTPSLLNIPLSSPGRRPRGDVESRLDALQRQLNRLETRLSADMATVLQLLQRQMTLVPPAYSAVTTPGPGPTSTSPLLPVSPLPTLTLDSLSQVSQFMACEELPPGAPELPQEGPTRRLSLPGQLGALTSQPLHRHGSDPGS
On to `Cc1ccc2nsnc2c1S(=O)(=O)N(Cc1cc2cccc(C)c2[nH]c1=O)CC1CCCO1` (centres unmarked), for which the “hERG current change (%, negative = inhibition) at 10uM” value is 6.94%. Then `CCCCN(CCCC)S(=O)(=O)c1ccc(NS(=O)(=O)c2ccc(NC(C)=O)cc2)cc1`, with -9.78%. In the case of `Cn1c(-c2ccsc2)c(-c2cccs2)c2cc(-c3cccc4[nH]ccc34)ccc21`, the “hERG current change (%, negative = inhibition) at 10uM” value was 14.6%. Then `COc1ccc(S(=O)(=O)N(C)CC(=O)NCc2cccnc2)cc1Cl`, with 6.77%; and `Cc1cc(C(=O)Nc2ccc3c(c2)CCC3)c2ccccc2n1`, with 10.8%; and `COc1cccc(C(=O)Nc2cccc(-c3ccc(N4CCOCC4)nn3)c2)c1`, with -7.68%. Then `CC(C)NC(=O)NNc1c(Cl)cncc1Cl`, with 11.2%; and `CCOC(=O)C1CCN(c2c(NCCC(C)C)c(=O)c2=O)CC1`, with -14.7%; and `Cc1cc2occ(CC(=O)NNC(=O)c3ccccc3F)c2cc1C`, with 2.66%. Then `CCCOc1ccc(N2C(=O)CC(N3CCOCC3)C2=O)cc1` (centres unmarked), with -3.38%; and `CCOC(=O)CC1=CC(C)(CC(=O)OCC)C(C#N)(C#N)C(N)=C1C#N` (centres unmarked), with -3.35%. Regarding `CCN(CC)C(=O)C1CCCN(Cc2ccccc2)C1` (centres unmarked), the “hERG current change (%, negative = inhibition) at 10uM” value was 9.57%. Then `CCNc1nc(NCC)n2c(SCC(=O)Nc3ccc(Br)cc3F)nnc2n1`, with -30.3%; and `COc1cc(S(=O)(=O)n2cnc(C)c2)ccc1Br`, with 9.77%; and `CC(=O)Nc1ccc(S(=O)(=O)N(Cc2ccccc2)c2ccccc2F)cc1`, with 12.8%. Then `COc1ccccc1-c1nnc(SCC(=O)N2CCOCC2)o1`, with -1.56%; and `Cc1noc(C)c1CSCC(=O)Nc1nc2c(F)cc(F)cc2s1`, with 4.47%. Then `CCOCCc1nnc(NC(=O)C2CC(=O)N(c3ccc(OCC)cc3)C2)s1` (centres unmarked), with -18.1%; and `Cc1ccc(S(=O)(=O)Oc2ccc3c(c2)O/C(=C\c2cccnc2)C3=O)cc1`, with 1.51%; and `CCOC(=O)c1sc(NC(=O)c2cccnc2)nc1C`, with 16.8%. Regarding `Cc1cccc(N(CC(=O)NC2CCCC2)C(=O)CNC(=O)c2ccco2)c1C`, the “hERG current change (%, negative = inhibition) at 10uM” value is given as 19.2%. Then `COc1ccccc1-c1nnc(SCC(=O)Nc2ccc(S(N)(=O)=O)cc2)n1N`, with -7.19%; and `Cc1ncoc1C(=O)NCCC(c1ccccc1)c1ccccc1`, with -1.86%. In the case of `COc1cc(OC)cc(-c2c(-c3ccc(F)cc3)c3cc(-c4cccc5[nH]ccc45)ccc3n2C)c1`, the “hERG current change (%, negative = inhibition) at 10uM” value is 7.74%. Then `Cc1nnc(NC(=O)CSc2nnc(CC(=O)Nc3ccccc3F)n2C)s1`, with -4.32%. Then `CCC1CCCCN1CCCNC(=O)CCC(=O)N1CCOc2ccccc21` (centres unmarked), with -15.6%. Then `O=C(Nc1ccccc1C(=O)O)c1ccc(NC(=O)C2CCCCC2)cc1`, with 4.77%; and `CC(=O)N[C@@H](Cc1ccc(OC(F)(F)F)cc1)C(=O)O`, with 13.3%.

As to `CC(C)NC(=O)CSc1nnc(-c2ccc3ncccc3c2)n1C`, the “hERG current change (%, negative = inhibition) at 10uM” value is 19%. Then `COc1ccc(CCNC(=O)C2CC(c3c(Cl)cccc3Cl)=NO2)cc1` (centres unmarked), with -26%.

Regarding `CCC(C)n1c(O)c(C=NCC2CCCO2)c(=O)[nH]c1=S` (centres unmarked), the “hERG current change (%, negative = inhibition) at 10uM” value is listed as 4.05%.

Turning to `CC(=O)Nc1cccc(NC(=O)C2CC(=O)N(CCc3ccc(F)cc3)C2)c1` (centres unmarked), the “hERG current change (%, negative = inhibition) at 10uM” value amounted to 5.99%. Then `CCOC(=O)C1CCN(S(=O)(=O)c2cn(C)c(C)n2)CC1`, with 21.3%; and `Cc1ccc(C)c(Sc2ccc(NC(=O)CCN3C(=O)NC4(CCCC4)C3=O)cc2)c1`, with -10.3%; and `Cn1c(CNC(=O)C2CCC(=O)N(CCc3cccc(F)c3)C2)nc2ccccc21` (centres unmarked), with -26.2%.

As to `COC(=O)C1CC(O)CN1C(=O)c1ccco1` (centres unmarked), the “hERG current change (%, negative = inhibition) at 10uM” value is recorded as 10.6%. Then `COc1ccccc1CNC(=O)COc1ccc(Br)c(C)c1`, with -3.95%.

Regarding `CC1=CC(C)(C)N(C(=O)CNC2CCCC2)c2cc(C)ccc21.O=C(O)C(=O)O`, the “hERG current change (%, negative = inhibition) at 10uM” value amounted to 9.74%. Then `C1=Nc2ccccc2CN1c1ccccc1.Cl`, with -18.1%.

`Cc1ccc(/C=N/n2c(-c3ccncc3)n[nH]c2=S)o1`: the “hERG current change (%, negative = inhibition) at 10uM” value amounted to 8.31%. For `CC(C)=CCc1c(-c2ccc(O)cc2O)oc2c3c(cc(O)c2c1=O)OC(C)(C)C=C3`, the “hERG current change (%, negative = inhibition) at 10uM” value was determined as 17.6%. Then `COc1ccc2sc(N(CCN(C)C)C(=O)c3ccc4ccccc4c3)nc2c1.Cl`, with -0.0157%; and `CCOC(=O)N1CCC(NC(=O)c2cc(S(=O)(=O)N3CCC4(CC3)OCCO4)ccc2F)CC1`, with -6.9%; and `Cn1c(CNc2nc(-c3ccccc3)cs2)nnc1SCC(=O)c1ccccc1`, with -6.96%. Take `CC1CCc2c(sc3ncnc(NS(=O)(=O)c4cccs4)c23)C1` (centres unmarked): the “hERG current change (%, negative = inhibition) at 10uM” value turned out to be 15.9%.

Take `COCc1[nH]nc2c1C(c1cccc(OC)c1)C(C#N)=C(N)O2` (centres unmarked): the “hERG current change (%, negative = inhibition) at 10uM” value was -7.26%. Then `COc1ccc(N2C(=O)C(C)(C)C2c2c(O)ccc3ccccc23)cc1` (centres unmarked), with 26.9%; and `CCc1ccc(NC(=O)C2CCN(S(C)(=O)=O)CC2)cc1`, with 2.73%. Then `O=c1c2sc(-c3ccccc3)cc2nc2n1CCC2`, with -9.78%; and `CCCCC(=O)N(Cc1ccc(-c2ccccc2-c2nn[nH]n2)cc1)[C@H](C(=O)O)C(C)C`, with 20.5%. In the case of `NC(=O)CSc1nnnn1-c1cccc(Cl)c1`, the “hERG current change (%, negative = inhibition) at 10uM” value worked out at 12%. Then `CCCCC(=O)Nc1ccc(C)c(S(=O)(=O)N2CCCCCC2)c1`, with -40.6%; and `OCC1(Cc2ccccc2C(F)(F)F)CCN(Cc2ccncc2)CC1`, with -13.8%. Then `O=C(NCc1ccc(Cl)cc1)C(=O)NCC1OCCN1S(=O)(=O)c1cccs1` (centres unmarked), with -3.4%. Regarding `CCOC(=O)C1(CC2CCCCO2)CCN(C(=O)Nc2ccccc2SC)CC1` (centres unmarked), the “hERG current change (%, negative = inhibition) at 10uM” value was determined as 3.42%. On to `Cc1ccc(NC(=O)O/N=C/c2c(C)nn(C(C)(C)C)c2C)cc1Cl`, for which the “hERG current change (%, negative = inhibition) at 10uM” value was -8.04%.
